Measurements: the supplement of paper PMC3334620
Whole data set: some 33,000 sequences, median “E-score (-0.5 to 0.5)” near -0.012, cut for the highest 2% near 0.29. The list shows a part of the results.

These sequences were tested against T1, Ybr033w (UniProt P38073) (assay: PBM E-score (8-mer binding enrichment) (E-score (-0.5 to 0.5)); higher = stronger / more preferred TF binding; most listed sequences are background and not binding sites). Conditions: protein concentration: 200 nM; construct: GST-full length.
T1 sequence: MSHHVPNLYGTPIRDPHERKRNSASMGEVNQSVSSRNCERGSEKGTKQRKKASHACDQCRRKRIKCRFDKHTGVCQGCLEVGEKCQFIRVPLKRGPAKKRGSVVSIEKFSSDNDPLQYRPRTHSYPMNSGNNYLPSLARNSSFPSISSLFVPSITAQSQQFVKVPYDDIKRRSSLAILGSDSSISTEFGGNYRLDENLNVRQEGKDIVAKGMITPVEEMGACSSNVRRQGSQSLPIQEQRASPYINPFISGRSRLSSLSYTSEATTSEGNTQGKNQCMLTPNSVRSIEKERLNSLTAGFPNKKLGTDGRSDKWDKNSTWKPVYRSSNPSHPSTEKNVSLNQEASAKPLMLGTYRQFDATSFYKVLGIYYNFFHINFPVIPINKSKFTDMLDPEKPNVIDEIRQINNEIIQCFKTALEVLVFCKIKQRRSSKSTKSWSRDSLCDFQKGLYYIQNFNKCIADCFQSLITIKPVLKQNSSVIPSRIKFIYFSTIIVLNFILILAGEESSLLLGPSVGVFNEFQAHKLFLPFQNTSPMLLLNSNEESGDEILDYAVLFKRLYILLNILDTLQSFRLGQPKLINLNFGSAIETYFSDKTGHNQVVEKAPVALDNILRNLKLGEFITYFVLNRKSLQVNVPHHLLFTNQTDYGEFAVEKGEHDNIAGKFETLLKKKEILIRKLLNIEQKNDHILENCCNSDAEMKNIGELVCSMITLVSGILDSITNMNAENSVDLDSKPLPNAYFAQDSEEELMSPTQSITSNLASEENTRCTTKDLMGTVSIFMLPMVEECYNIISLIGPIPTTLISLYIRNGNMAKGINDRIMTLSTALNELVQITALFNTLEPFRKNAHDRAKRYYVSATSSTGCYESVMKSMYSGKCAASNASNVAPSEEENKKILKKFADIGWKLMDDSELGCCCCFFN
Outline: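 Each ungapped eight-base word and its reverse complement, pooled, received an E-score from the Universal PBM Analysis Suite. Underlying scans, normalised with masliner, recorded fluorescent anti-GST bound to GST-tagged yeast transcription factors. These were applied at about 100-200 nM to universal all-10-mer Agilent arrays double-stranded by primer extension.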

Row | Sequence | PBM E-score
1 | AAGGAAAG | -0.147
2 | CCCTTATA | 0.0469
3 | AACGGGGC | -0.143
4 | CTCAAGTC | -0.0954
5 | AAACGCCA | 0.0711
6 | ATAGGACC | -0.212
7 | AATATGGT | 0.16
8 | AACGTCAA | 0.138
9 | CTTGTGAA | 0.136
10 | AAGGTGCA | -0.00764
11 | CGTAGTCC | -0.231
12 | TTATTAAA | 0.283
13 | CTCATGCA | 0.00544
14 | GGCATGCC | -0.0568
15 | GATTGATA | 0.238
16 | AGATTCGA | -0.0441
17 | AAAGACCT | -0.101
18 | AGTAGCCA | -0.184
19 | ATTTTCTC | 0.201
20 | CTGATAGA | 0.0969
21 | CATGCTGC | -0.154
22 | ATAAGATG | 0.173
23 | CATATGTC | -0.0743
24 | ATACCACC | 0.114
25 | CATGCTAG | -0.0277

Row | Sequence | PBM E-score
26 | GGTTCTAC | -0.0153
27 | GTCGACTA | 0.171
28 | CTTGCTCC | -0.133
29 | CTCTATCC | -0.0705
30 | GCTCAAAA | 0.146
31 | AATTCAAG | 0.233
32 | ACTTGGGA | -0.0817
33 | CGGTGGTC | -0.0278
34 | AGCCAGGA | -0.00989
35 | ACATTCAT | 0.235
36 | CACTCTAC | 0.0644
37 | ACCAGCAG | -0.15
38 | TCAAACCA | 0.186
39 | ATCGGGCA | -0.215
40 | TGCAACAA | 0.157
41 | GGCTCACC | -0.218
42 | GTATTAGA | 0.228
43 | GCGGAGCC | -0.304
44 | ACCGATGC | -0.116
45 | CAAGAGCG | -0.115
46 | GTAGACAC | 0.0538
47 | GAATGCGC | 0.0787
48 | CGGTGTGA | 0.107
49 | CCTGGGGA | -0.323
50 | ATGACTAA | 0.0188

Row | Sequence | PBM E-score
51 | ACAGGCAA | 0.0445
52 | GACGGGTA | -0.212
53 | CATAGGGC | -0.155
54 | ATTGCCAA | -0.00029
55 | ATATGATC | 0.268
56 | AGAGCGGC | -0.104
57 | GCCAAAGA | 0.00251
58 | GTGAAGCA | -0.00164
59 | AATGTGGA | 0.0893
60 | CATTCAGG | -0.0502
61 | GGGCCGAC | -0.196
62 | CCCATTAC | -0.17
63 | GCTGCTAC | -0.175
64 | GATACTGA | 0.0886
65 | CGTTTACA | -0.0549
66 | CCATCTAG | -0.0741
67 | CTTGCTAA | 0.0713
68 | ACTCGGCG | -0.0867
69 | ACCAAGAT | 0.197
70 | AGTGAAGG | -0.0941
71 | ACCGTATG | -0.0854
72 | CCACCAAA | -0.0586
73 | CCATGGGA | -0.0942
74 | AGCCCCAT | -0.224
75 | CTTCCGTC | 0.018

Row | Sequence | PBM E-score
76 | CCTGGGTA | -0.17
77 | CATGAGAA | 0.00513
78 | AAAACCCT | -0.0706
79 | CCATTCAC | -0.108
80 | CCGGGGCA | -0.219
81 | AAGAAAGG | 0.0767
82 | AGCTTCAG | 0.0406
83 | AGAAAATG | 0.13
84 | GCTGAGCC | -0.322
85 | CATGCGAG | -0.217
86 | ATCGAAGC | -0.0452
87 | ACAGGGAT | 0.0777
88 | ACCAACCA | -0.0191
89 | CGTCGTTC | 0.193
90 | CAGGGACC | -0.383
91 | CAGGTAAA | 0.233
92 | CACACCGA | 0.0972
93 | ACATAACT | 0.113
94 | GGTTGACA | 0.0779
95 | AGTTTGGG | 0.165
96 | AGCGGATC | 0.023
97 | AGCAAAAC | 0.0585
98 | AATGATGC | 0.162
99 | AATCAGTG | -0.0807
100 | CCGTTAAG | -0.121

Row | Sequence | PBM E-score
101 | TGCAATAA | 0.167
102 | GATCAGCC | -0.0555
103 | ATTGACGG | -0.0845
104 | CGGTAGAA | -0.294
105 | AACGTGAC | -0.0568
106 | CGGATTGA | 0.0349
107 | ACCCGCTA | -0.0201
108 | CGACACCC | -0.275
109 | ATTCTGTA | 0.103
110 | AGAAGTAA | 0.176
111 | AAATTATG | 0.227
112 | CATGTCCC | -0.153
113 | CGCATCTA | 0.201
114 | CTGCCATC | -0.113
115 | AAGTGGTC | 0.0337
116 | GAGGTACC | -0.157
117 | CAGTTTAA | -0.00782
118 | ACCTGGGA | -0.00837
119 | ACATTAGT | 0.105
120 | GTAAGCAA | 0.112
121 | CCGCAGTA | -0.00848
122 | AATACTTA | 0.251
123 | TACGAGGA | 0.0233
124 | ATACTTAA | 0.254
125 | TAATTCGA | 0.159

Row | Sequence | PBM E-score
126 | AATGCAAC | 0.0176
127 | CTTTTGGC | -0.0369
128 | ATTTCAGC | -0.0455
129 | CTGACATC | -0.0781
130 | GGCGCGCA | -0.0682
131 | TCCTGCGA | -0.0113
132 | ATGCTTTA | -0.0011
133 | CGGAGGTA | -0.146
134 | AGCTTTTC | 0.0408
135 | AGAGGTCG | -0.128
136 | CTCGAGTA | -0.0178
137 | AGGTTACG | -0.03
138 | CTTGTAAC | 0.143
139 | ACCACCAG | 0.0382
140 | GCCCTTAC | -0.285
141 | CTATAAGA | 0.0738
142 | GCGGGCAC | -0.0586
143 | ACTCGAGA | 0.0536
144 | CAGGGGCC | -0.228
145 | GTCATCGA | 0.0247
146 | TCCGTCGA | 0.0166
147 | CTCCTCAG | -0.178
148 | CTTCCAGC | -0.208
149 | TCGAAACA | 0.222
150 | CTCCTATA | -0.117

Row | Sequence | PBM E-score
151 | ATCATATA | 0.269
152 | CCACAATC | 0.00169
153 | AGTCCGGC | -0.17
154 | TAAGGACA | -0.0159
155 | GCACTTAC | 0.0348
156 | GAACTGAA | 0.0824
157 | CGTGCCTC | -0.0375
158 | CAGGAAGA | 0.169
159 | ACGTCTGA | 0.0997
160 | ACATAGAG | -0.116
161 | ACGGACCA | 0.159
162 | CTGACACC | -0.0832
163 | ACAATGCT | 0.182
164 | TGGATTAA | 0.38
165 | GGCTTGCA | -0.0086
166 | CGCTGACA | -0.167
167 | AGCCGAAA | 0.152
168 | CTCCCGTA | -0.218
169 | GTGCTAAC | 0.0153
170 | AATTTACC | 0.103
171 | AATGACTA | -0.0342
172 | AAGATGAT | 0.108
